From PubChem BioAssay AID624417 (National Center for Advancing Translational Sciences (NCATS), 2012)
Out of some 410,000 compounds screened, about 6,400 (1.6%) were called active. The shares of active, inactive and inconclusive entries below differ from those in the screen. The call rests on the fitted dose curve; in most records, active means well fitted inhibition curve with a large enough effect; inconclusive means small, poorly fitted or top-dose-only effect; inactive means no such curve, though single readings can be large or run the other way. No potency is given beside an inconclusive call; the fits are too rough.

biological target: Glucagon-like peptide 1 receptor (Homo sapiens) (UniProt P43220); test: qHTS of GLP-1 Receptor Inverse Agonists (Inhibition Mode); details: HEK293 GLP-1R CRE-luciferase, luminescence, 24 h, GLP-1R form is constitutively active; series mostly up to 38.3 µM; further: nearly all actives have a fitted effect of over 55% in size
UniProt P43220, sequence (P43220 whole entry, looked up): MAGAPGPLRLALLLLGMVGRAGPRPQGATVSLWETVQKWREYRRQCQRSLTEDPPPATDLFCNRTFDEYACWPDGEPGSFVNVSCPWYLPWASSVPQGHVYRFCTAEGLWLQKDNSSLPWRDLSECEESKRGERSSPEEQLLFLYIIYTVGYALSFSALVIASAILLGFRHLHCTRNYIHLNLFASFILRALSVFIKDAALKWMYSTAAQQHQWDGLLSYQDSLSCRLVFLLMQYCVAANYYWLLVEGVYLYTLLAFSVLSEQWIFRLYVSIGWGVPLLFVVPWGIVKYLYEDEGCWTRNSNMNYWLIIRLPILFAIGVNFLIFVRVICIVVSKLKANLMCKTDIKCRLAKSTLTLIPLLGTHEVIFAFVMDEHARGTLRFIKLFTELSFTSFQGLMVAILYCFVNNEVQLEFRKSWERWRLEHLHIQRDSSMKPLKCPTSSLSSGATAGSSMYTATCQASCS
Summary of the method: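 Inverse agonism was detected as reduced cAMP-driven luciferase luminescence after 24 h compound treatment. The cells were HEK293 clones expressing constitutively active human GLP-1R with the reporter. Reporter-only and GPR119 cell lines served as counterscreen controls.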
Potency means the concentration at half of the fitted maximal effect; tags describe the fitted curve by direction and shape.

Row | Structure (SMILES) | Potency
1 | CC(C)(CNc1ccc(C(F)(F)F)cc1[N+](=O)[O-])N1CCOCC1 | inconclusive [inhibitor, partial curve, poor fit]
2 | Cc1cc(C)c(S(=O)(=O)Nc2ccccc2-c2ccccc2)c(C)c1 | inconclusive [inhibitor, partial curve, poor fit]
3 | COc1ccc(-c2c[n+](CC(=O)OC3CC(C)CCC3C(C)C)c3n2CCC3)cc1 (stereo not given) | inconclusive [inhibitor, partial curve, poor fit]
4 | CCOc1ccc(N(C(=O)c2ccccc2F)S(=O)(=O)c2ccc3c(c2)n(C)c(=O)n3C)cc1 | inactive
5 | CC1CCN(S(=O)(=O)c2ccc3c(ccc(=O)n3CC(=O)Nc3ccc(C(C)C)cc3)c2)CC1 | inactive
6 | CN(C)/C=C/C(=O)c1ccc2noc(-c3ccccc3)c2c1 | inconclusive [inhibitor, single point]
7 | CCc1ccc(CNCc2c(C(=O)O)c(C)n(Cc3c(F)cccc3Cl)c2C)cc1 | inactive
8 | Cc1[nH]c(=S)c(C#N)c(C)c1Cc1ccc(Cl)cc1Cl | inactive
9 | O=C(NCc1cccc(C(F)(F)F)c1)c1ccc2c(c1)OCCO2 | inconclusive [inhibitor, single point]
10 | CCOc1cccc(C(=O)N(Cc2ccc(N(C)C)cc2)CC2CCCO2)c1 (stereo not given) | inactive
11 | Cc1cccc(C)c1NC(=O)C(c1ccccc1F)n1c(=O)c(-c2ccccc2)nc2ccccc21 (stereo not given) | inconclusive [inhibitor, partial curve, poor fit]
12 | S=C1NCCc2ccccc2C1c1ccccc1 (stereo not given) | active: 11.2 µM
13 | Cc1cccc(NC(=O)CCc2c(C)nn(-c3ccc(N4CCCCC4)nn3)c2C)c1 | inconclusive [inhibitor, partial curve, poor fit]
14 | Cc1oc(-c2ccccc2)cc1C(=O)Nc1ccc(N(C)C)cc1 | inconclusive [inhibitor, single point]
15 | COc1cccc(-c2ccc3c(c2)N(Cc2ccccc2OC)C(=O)C(C)S3)c1 (stereo not given) | inconclusive [inhibitor, partial curve, poor fit]
16 | COc1cccc(-n2c(=O)c3c(C)c(C)sc3n(CC(=O)Nc3ccccc3OC)c2=O)c1 | inactive
17 | COc1cccc(CNC(=O)CCNS(=O)(=O)c2ccc(Br)s2)c1 | inconclusive [inhibitor, partial curve]
18 | COc1cc(C)nc(N2CCCC(C(=O)NCC(C)C)C2)n1 (stereo not given) | inconclusive [inhibitor, partial curve, poor fit]
19 | Nc1n[nH]c(C2CC2)c1N=Nc1ccc(Cl)c(Cl)c1 | inconclusive [inhibitor, partial curve, poor fit]
20 | COc1ccc(-c2cc(C#N)nc(NN)n2)cc1 | inconclusive [inhibitor, single point]

Row | Structure (SMILES) | Potency
21 | Cc1nc2c(OCCOc3ccccc3)cccn2c1N(C)C(=O)CCC1CCCC1 | inconclusive [inhibitor, single point]
22 | Cc1ccc(N(C)S(=O)(=O)c2cc(-c3cnc(C4CC4)o3)ccc2C)cc1 | inconclusive [inhibitor, full curve, poor fit]
23 | Cn1cnc(C(=O)NCc2ccccc2)c1C(=O)NCc1ccccc1 | inconclusive [inhibitor, single point]
24 | COc1ccc(NC(=O)CN2CCC(C(N)=O)CC2)cc1 | inactive
25 | O=C(O)c1c(-c2ccccc2)oc2ccc(OCc3ccc(Cl)c(Cl)c3)cc12 | inconclusive [inhibitor, single point]
26 | COc1cc(/C=N/Nc2ccccc2)ccc1OC(=O)c1cccs1 | inconclusive [inhibitor, partial curve, poor fit]
27 | CN(CCC1CCCCO1)C(=O)c1cc(COc2ccc(F)cc2F)on1 (stereo not given) | inconclusive [inhibitor, partial curve, poor fit]
28 | CN(C)c1nc(C=C(C#N)C#N)c(Cl)n1-c1ccc(F)cc1 | inconclusive [inhibitor, partial curve, poor fit]
29 | O=C1/C(=C/c2ccccc2)N=C(N2CCOCC2)N1c1cccc(Cl)c1 | inconclusive [inhibitor, partial curve, poor fit]
30 | Cc1ccccc1-n1nnnc1SC(C)C(=O)NC1CCCc2ccccc21 (stereo not given) | inconclusive [inhibitor, partial curve, poor fit]
31 | CCc1ccccc1NC(=S)NC1CC2CCC(C1)N2Cc1ccc(F)cc1 (stereo not given) | inconclusive [inhibitor, single point]
32 | O=C(NC1CCCCCC1)C(Cc1ccccc1)n1cccc1 (stereo not given) | inconclusive [inhibitor, single point]
33 | Cc1cccc(Cn2nc(C)c(NC(=O)c3ccc(F)cc3)c2C)c1 | inconclusive [inhibitor, full curve, poor fit]
34 | COc1ccc(C(=O)N(Cc2ccccc2)c2cccc(C)c2)cc1 | inconclusive [inhibitor, single point]
35 | COCCCNC(=O)c1oc2c(c1C)-c1nn(Cc3ccc(Cl)cc3)cc1CC2 | inconclusive [inhibitor, single point]
36 | CC(C)(Oc1ccc(Cl)cc1)C(=O)NC1CCCCC1 | inconclusive [inhibitor, single point]
37 | Cc1ccc(CSCCNC(=O)c2ccc(C)cc2)cc1 | inconclusive [inhibitor, partial curve]
38 | Cc1cc(C)cc(NS(=O)(=O)c2ccc(-n3cccn3)cc2)c1 | inconclusive [inhibitor, single point]
39 | Cn1cc(CCC(=O)NCc2ccc(Cl)cc2)c2ccccc21 | inconclusive [inhibitor, partial curve, poor fit]
40 | CCOC(=O)c1cc(-c2ccccc2)n(CC(=O)Nc2ccc(OCC)cc2)c1C | inconclusive [inhibitor, partial curve, poor fit]
